According to PubChem BioAssay AID1345082 (National Center for Advancing Translational Sciences (NCATS), 2018):
Among all 94,000 compounds or so, about 4,000 (4.3%) were called active. Inconclusive results, whose numbers are uncertain, are shown with a selection of clear calls. Calls come from the whole dose curve; as a rule, active = well fitted inhibition curve with a large enough effect; inconclusive = small, poorly fitted or top-dose-only effect; inactive = no such curve, though single readings can be large or run the other way. Where the call is inconclusive, the potency comes from a doubtful curve fit.

Assay: Cytotoxic Profiling in NIH 3T3 Cell Line of Diverse Libraries Using Quantitative High-Throughput Screening; note: nearly all actives have a fitted effect of over 55% in size
Details: NIH 3T3 viability, CellTiter-Glo ATP luminescence, 48-72 h; activity change, negative = cytotoxicity: at 96.7 µM (top of the series) unless noted; series mostly up to 96.7 µM
Procedure, shortened: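 Cells were seeded at 400 per well, treated with pin-transferred compound, and kept 48 or 72 hr at 37 °C before CellTiter-Glo addition and luminescence imaging of cellular ATP.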
% is set by controls: 0 for no effect and ±100 for the full control effect; potency is the fitted concentration of half-maximal effect; tags give direction and shape of the fitted curve.

Compound	activity change, negative = cytotoxicity	Potency	outcome
O=C(Cc1ccccc1)N1CCCN(c2ccc3nnc(C4CC4)n3n2)CC1	inactive: -3.55%		
Cc1ccc(C(=O)N2CCCn3cc(-c4ccccc4F)nc32)cn1	inactive: -1.39%		
CN(C)c1ccc(-c2nnnn2[C@H]2CO[C@H]3[C@@H]2OC[C@@H]3NS(=O)(=O)c2cccc3cccnc23)cc1		inconclusive: 79.4 µM [inhibitor, partial curve, poor fit]	
Cn1c(C(=O)N2CCN(c3ccccn3)CC2)cc2c1CCN(Cc1ccccc1)C2		inconclusive: 70.8 µM [inhibitor, single point]	
N#Cc1cccc(CN(Cc2cccc(C#N)c2)[C@@H]2CO[C@H](CNC(=O)c3ccccc3)[C@H]2O)c1		inconclusive: 100 µM [inhibitor, single point]	
CN(C)C[C@@H]1CN(Cc2ccccn2)C[C@H]1NS(=O)(=O)Cc1ccccc1	inactive: 2.5%		
Cc1csc(NC(=O)[C@@H]2C[C@@H](c3cccc(C(F)(F)F)c3)N(Cc3cnn(C)c3)C2)n1		inconclusive: 50.1 µM [inhibitor, partial curve, poor fit]	
COc1ccc(Nc2ccnc(N3CCC(C(=O)NCC(F)(F)F)CC3)n2)cc1		inconclusive: 44.7 µM [inhibitor, partial curve, poor fit]	
CC(C)OCCCNC(=O)c1cc(C2CC2)nc2onc(C3CCNCC3)c12	inactive: -0.135%		
O=C(COc1ccccc1)N[C@H]1CO[C@H]2[C@@H]1OC[C@@H]2n1nnnc1Oc1ccc(-n2ccnc2)cc1	inactive: -19.9%		
COc1cccc(C)c1NC(=O)c1cccc(CN2CCCC(C)C2)c1 (centres undefined)	inactive: -17.3%		
COc1ncccc1-c1nc(-c2c(C)noc2C)cc2c1cc(-c1ccccc1)n2C		active: 25.1 µM	
COc1ccc2nc(CO[C@H]3CN(Cc4cnn(C)c4)C[C@H]3F)[nH]c2c1	inactive: 4.28% [at 138 µM]		
COc1cccc(-c2noc(Nc3cc(OC)c(OC)c(OC)c3)n2)c1		inconclusive: 50.1 µM [inhibitor, partial curve, poor fit]	
COC[C@@H]1[C@H](C(=O)N2CCN(c3ccc(F)cc3)CC2)CCCN1Cc1ccccc1		inconclusive: 50.1 µM [inhibitor, partial curve, poor fit]	
Cn1cc(CN2CCCC(C(=O)N3CCOCC3)C2)c(-c2ccc(C3CCCCC3)cc2)n1 (centres undefined)	inactive: -10.2%		
O=C(Cc1ccccc1Cl)N1CCC(n2cc(-c3nc(-c4ccccc4)no3)nn2)CC1	inactive: 0.121%		
Clc1ccc(-c2nc(C3CC3)nc3c2CCN(Cc2ccccc2)CC3)cc1	inactive: -5.26%		
COc1ccc(S(=O)(=O)N2CCOC[C@H](Oc3ccccc3)C2)cc1		inconclusive: 79.4 µM [inhibitor, partial curve, poor fit]	
Cc1cccnc1CN1C[C@@H](F)[C@@H](OCc2nc3ccccc3o2)C1		inconclusive: 56.2 µM [inhibitor, partial curve, poor fit]	
CC(C)c1cc(CN(C)C(=O)c2cc(COc3ccccc3)[nH]n2)on1		inconclusive: 31.6 µM [inhibitor, partial curve, poor fit]	
COc1ccc(F)cc1-c1cccc(C(=O)NCCNC(=O)c2ccc(Cl)cc2)c1		inconclusive: 44.7 µM [inhibitor, partial curve, poor fit]	

Compound	activity change, negative = cytotoxicity	Potency	outcome
O=C(Cc1cccc2ccccc12)N1C[C@@H](CO)[C@H](c2ccccn2)C1		inconclusive: 35.5 µM [inhibitor, partial curve, poor fit]	
COc1ccc(F)cc1-c1cccc(C(=O)NCC(=O)NC2CCN(Cc3ccccc3)CC2)c1		inconclusive: 50.1 µM [inhibitor, partial curve, poor fit]	
CSc1ccc(-c2nc(CN3CCN(C(=O)N(C)C)CC3)c(C)o2)cc1	inactive: -18.9%		
C=CCN(C)C(=O)[C@@H](C)C1CC[C@@]2(C)Cc3sc(NS(=O)(=O)c4ccc(Cl)cc4)nc3[C@@H](C)[C@@H]2[C@H]1O (some centres undefined)		inconclusive: 70.8 µM [inhibitor, partial curve, poor fit]	
CC(C)c1nc2c(c(-c3ccc(O)cc3)n1)CCN(C(=O)C(C)(C)C)CC2		inconclusive: 79.4 µM [inhibitor, partial curve, poor fit]	
Clc1ccc(-c2cnc([C@@H]3COCCN3)[nH]2)cc1		inconclusive: 79.4 µM [inhibitor, partial curve]	
CC(C)(C)C(=O)N1CCC(C(=O)N2CCCC2c2nc3ccncc3[nH]2)CC1 (centres undefined)	inactive: -18.3%		
CCN1c2cc(C(=O)N3CCCC3)ccc2C(=O)N2CCCCCC21 (centres undefined)		inconclusive: 63.1 µM [inhibitor, partial curve, poor fit]	
COc1ccc(NC(=O)C2CCc3nnc(CN[S+](C)(=O)[O-])n32)cc1 (centres undefined)	inactive: -12.1%		
CC(C)OCCCNC(=O)c1cc(-c2ccccc2C(F)(F)F)nc2c1cnn2C		inconclusive: 44.7 µM [inhibitor, partial curve, poor fit]	
O=C(NCc1cccs1)c1csc(N2CCN(c3ccccc3F)CC2)n1		inconclusive: 50.1 µM [inhibitor, partial curve, poor fit]	
Cn1nc(-c2ccncc2)cc1NC(=O)c1cccc(Br)c1		inconclusive: 44.7 µM [inhibitor, partial curve, poor fit]	
CC[C@H]1CN(S(C)(=O)=O)CC[C@H]1CC(=O)NCc1cccc2ccccc12		inconclusive: 112 µM [inhibitor, single point]	
CN1C(=O)CCCCC1C(=O)NCc1ccncc1 (centres undefined)	inactive: -0.261%		
Cc1cc(CN(C)C(=O)c2cc(CN3CCC(Cc4ccccc4)CC3)on2)n[nH]1	inactive: -22.1%		
CNC(=O)[C@H]1C[C@H](Oc2ccccc2)CN1C(=O)CCc1c[nH]c2ccccc12	inactive: -17%		
Cc1ccccc1C(=O)N1CCC(n2cc(-c3nc(-c4ccccc4)no3)nn2)C1 (centres undefined)		inconclusive: 50.1 µM [inhibitor, partial curve, poor fit]	
CCN1c2cc(C(=O)Nc3ccc(Cl)c(F)c3)ccc2C(=O)N2CCCCC21 (centres undefined)		inconclusive: 35.5 µM [inhibitor, partial curve]	
COc1ccc([C@H]2C[C@@H](O)[C@@H](O)[C@@H]2NCc2cn(C)c3ccccc23)cc1		active: 89.1 µM	
Cc1cc(CN2CC(N(C)c3ccccc3C)C2)on1		inconclusive: 100 µM [inhibitor, partial curve, poor fit]	
O=c1ncn(Cc2ccccc2)c2ccc(-c3ccsc3)nc12		inconclusive: 112 µM [inhibitor, single point]	
CC1=C[C@@H](CNC(=O)Cn2cnnn2)[C@H](C(C)C)C[C@H]1Cc1nc2ccccc2[nH]1	inactive: -23.2% [at 138 µM]		

Compound	activity change, negative = cytotoxicity	Potency	outcome
Cc1ccccc1C(=O)N1CCCC(C(=O)N2CCC(c3ccccc3)CC2)C1 (centres undefined)		inconclusive: 79.4 µM [inhibitor, partial curve, poor fit]	
O=C(c1ccccc1F)N1CCN(C(=O)c2nc3cccnc3n(Cc3ccccc3)c2=O)CC1	inactive: -11.9%		
COCCNC(=O)c1ccc(CC2CCN(C(=O)CCc3c(C)nn(C)c3C)CC2)cc1		inconclusive: 22.4 µM [inhibitor, partial curve, poor fit]	
COc1cccc(CN2CCCC(Cc3ncc(C)n3Cc3ccccc3)C2)c1 (centres undefined)		inconclusive: 50.1 µM [inhibitor, partial curve, poor fit]	
CCc1ccc(CN2CCC(CO)(CN3CCCC3)CC2)cc1		inconclusive: 79.4 µM [inhibitor, partial curve]	
CC(C)c1noc([C@@H]2C[C@H]3C(=O)NCCCCCCN(C(=O)c4ccsc4)[C@H]3C2)n1		inconclusive: 56.2 µM [inhibitor, partial curve, poor fit]	
Cc1ccccc1NC1CCn2c(nc(C)c2C(=O)Nc2ccccc2)C1 (centres undefined)		inconclusive: 15.8 µM [inhibitor, full curve, poor fit]	
O=C(NCc1ccc(Cl)cc1)c1ccc2nnc(-c3cccc(C(F)(F)F)c3)n2c1		inconclusive: 11.2 µM [inhibitor, full curve, poor fit]	
O=C(Nc1ccc2ncnc(N3CCCCC3)c2c1)c1cc(F)ccc1F		inconclusive: 44.7 µM [inhibitor, partial curve, poor fit]	
Cn1cc(-c2cc(-c3cccnc3)c3cncn3c2)cn1		inconclusive: 35.5 µM [inhibitor, full curve]	
Cn1nccc1CN1CCC2(CC1)CC(=O)c1ccc(Cl)cc1O2		inconclusive: 20 µM [inhibitor, full curve]	
O=C1NCCCCCCN(C(=O)c2cccs2)[C@H]2C[C@H](C(=O)N3CCc4ccccc4C3)C[C@@H]12	inactive: -16.9%		
CCOc1ccc(NC(=O)c2ccc3c(c2)N(CC)C2CCCCN2C3=O)cc1 (centres undefined)		active: 22.4 µM	
CN(C)c1cc(=O)c2ccnc(Nc3ccccn3)c2o1		active: 70.8 µM	
O=C(NCc1ccncc1)[C@@H]1C[C@@H](c2ccc(F)cc2)N([S+](=O)([O-])c2cccnc2)C1		inconclusive: 112 µM [inhibitor, partial curve, poor fit]	
COc1ccc(-n2nc3n(c2=O)CCN(Cc2ccccc2)C3)cc1		active: 8.91 µM	
O=C(c1ccccc1Br)N1CCN(c2cc(-c3cccs3)[nH]n2)CC1		inconclusive: 28.2 µM [inhibitor, full curve]	
COCCNC(=O)[C@@H]1C[C@@H](O)CN1C1CCN(C(=O)CN2CCCCCC2)CC1			inactive
O=C(NC[C@H]1Cn2c(-c3ccc4c(c3)OCO4)cnc2CO1)c1ccc2c(c1)OCO2		active: 28.2 µM	
CNC(=O)c1cc(C)nc2onc(C3CCCN([S+](=O)([O-])c4ccccc4)C3)c12 (centres undefined)	inactive: -18.6%		
